Hit rate of the full screen: of about 270,000 compounds, about 5,800 (2.1%) were called active. The inconclusive results got no clear call from the source; some entries with a clear call stand among them for comparison. Calls follow the shape of the dose curve; as a rule, active = well fitted inhibition curve with a large enough effect; inconclusive = small, poorly fitted or top-dose-only effect; inactive = flat fitted curve, though single readings scatter. A potency beside an inconclusive call is a rough fit, not a confirmed value.
What follows are molecules tested against Microtubule-associated protein tau (Homo sapiens) (UniProt P10636) (assay: qHTS for Inhibitors of Tau Fibril Formation, Thioflavin T Binding). Conditions: recombinant tau K18 P301L (four-repeat tau fragment), heparin-induced fibrillization, ThT fluorescence; series mostly up to 57.4 µM.
Chain of UniProt P10636 (P10636 whole entry, looked up, the tested form may be a part): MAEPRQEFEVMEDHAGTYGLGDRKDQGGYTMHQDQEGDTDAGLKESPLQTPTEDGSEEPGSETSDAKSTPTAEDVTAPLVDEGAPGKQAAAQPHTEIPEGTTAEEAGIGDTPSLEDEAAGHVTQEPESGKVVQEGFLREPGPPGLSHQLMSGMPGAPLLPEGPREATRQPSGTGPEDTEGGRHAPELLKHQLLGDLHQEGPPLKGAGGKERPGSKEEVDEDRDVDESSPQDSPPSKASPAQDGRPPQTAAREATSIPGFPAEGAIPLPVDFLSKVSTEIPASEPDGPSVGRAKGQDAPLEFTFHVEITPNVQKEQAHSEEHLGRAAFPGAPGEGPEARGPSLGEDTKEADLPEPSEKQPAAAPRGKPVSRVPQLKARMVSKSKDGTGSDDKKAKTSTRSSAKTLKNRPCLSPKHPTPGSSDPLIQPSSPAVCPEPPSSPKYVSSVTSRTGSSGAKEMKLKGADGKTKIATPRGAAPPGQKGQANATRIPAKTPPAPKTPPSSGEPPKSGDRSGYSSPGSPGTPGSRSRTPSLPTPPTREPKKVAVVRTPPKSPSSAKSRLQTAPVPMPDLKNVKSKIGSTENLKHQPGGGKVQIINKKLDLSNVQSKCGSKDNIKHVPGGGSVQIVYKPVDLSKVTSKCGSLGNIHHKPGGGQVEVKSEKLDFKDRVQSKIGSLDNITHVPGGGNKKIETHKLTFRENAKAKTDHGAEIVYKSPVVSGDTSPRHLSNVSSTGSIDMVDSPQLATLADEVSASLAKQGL
In short: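 In this qHTS, human K18 P301L tau is incubated with compound and heparin for 6 hr at 37 C, and Thioflavin T fluorescence then reports fibril load.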
In the case of `Cc1ccc(OCC(=O)Nc2sc3c(c2C#N)CCC3)cc1C`, the Potency was inconclusive: 5.01 µM [inhibitor, full curve].
For `COCCNc1nc2ccccc2nc1NS(=O)(=O)c1ccc(C)cc1C`, the Potency was inconclusive: 44.7 µM [inhibitor, single point].
With `COc1ccc(-c2cn3cccnc3n2)cc1NC(=O)c1cccs1` the Potency was inconclusive: 22.4 µM [inhibitor, single point].
For `CCn1c(C)cc(=S)c2ccccc21`, the Potency was active: 20 µM.
`Cc1noc(/C=C/N(C)C)c1S(=O)(=O)N1CCCC(C(=O)NCc2cccs2)C1` (centres undefined) was tested, and the Potency was inconclusive: 25.1 µM [inhibitor, single point].
With `O=C(c1ccccc1)N1CCN(c2ccc([N+](=O)[O-])c(N3CCOCC3)c2)CC1` the Potency was inconclusive: 15.8 µM [inhibitor, partial curve].
`Cc1cc(C)c(S(=O)(=O)Nc2ccc(O)cc2)cc1C` was tested, and the Potency was “inactive”.
`Cc1cc(=O)c2c(O)c3c(O)cc(=O)c4c3c3c(cc(O)c1c23)C(C)(C)C=4O` was tested, and the Potency was active: 8.91 µM.
`CCNc1cc2n(c(=O)n1)CCc1cc(OC)c(OC)cc1-2` was tested, and the Potency was inconclusive: 14.1 µM [inhibitor, partial curve].
`Cc1sc(N/N=C/c2cccnc2)nc1-c1ccccc1` was tested, and the Potency was inconclusive: 7.94 µM [inhibitor, single point].
With `O=c1oc2cc(O)ccc2cc1-c1ccc2c(c1)OCCO2` the Potency was inconclusive: 5.01 µM [inhibitor, partial curve].
For `O=C(CCNc1n[nH]c(=O)[nH]c1=O)N/N=C/c1ccc(C(F)(F)F)cc1`, the Potency was inconclusive: 10 µM [inhibitor, single point].
For `O=C(/C=C/c1ccc([N+](=O)[O-])cc1)NCCc1ccccc1`, the Potency was inconclusive: 7.94 µM [inhibitor, partial curve].
`CCOC(=O)c1ccc(Oc2cn[nH]c2-c2ccc(O)cc2O)cc1` was tested, and the Potency was inconclusive: 12.6 µM [inhibitor, partial curve].
For `COc1ccc(N2C(=O)C(Cl)=C(N3CCCC3)C2=O)cc1`, the Potency was inconclusive: 20 µM [inhibitor, partial curve].
In the case of `CCN(CC)CCNC(=O)C(=O)NCC(c1cccnc1)N1CCN(c2ccccc2)CC1` (centres undefined), the Potency was “inactive”.
In the case of `CCC(=O)c1ccc(OCC(O)Cn2c(C)nc3ccccc32)cc1` (centres undefined), the Potency was inconclusive: 5.01 µM [inhibitor, partial curve].
In the case of `COc1ccc2[nH]c(C)c(CCNC(=S)Nc3cccc(C)c3)c2c1`, the Potency was inconclusive: 22.4 µM [inhibitor, partial curve].
With `CN1N=C(c2ccc(F)c(F)c2)CSC1=NCc1ccccc1` the Potency was inconclusive: 17.8 µM [inhibitor, partial curve].
For `CC(=O)Oc1cc(OC(C)=O)c2c(C)cc(=O)oc2c1`, the Potency was inconclusive: 6.31 µM [inhibitor, partial curve].
With `COc1ccc(Nc2cc(C(=O)N3CCc4ccccc4C3)c3ccccc3n2)c(OC)c1` the Potency was inconclusive: 3.98 µM [inhibitor, partial curve, poor fit].
In the case of `COc1ccc(/C=N/NC(=O)CCn2cnc(-c3ccccc3)c2-c2ccccc2)cc1OC`, the Potency was inconclusive: 31.6 µM [inhibitor, single point].
In the case of `N#Cc1ccc(NC(=O)Cn2c3[n+](c4ccc(C(F)(F)F)cc42)CCCCC3)cc1`, the Potency was “inactive”.
With `O=C(Nc1cccc(Cl)c1)c1cc(-c2ccc3c(c2)OCCO3)on1` the Potency was inconclusive: 0.891 µM [inhibitor, full curve, poor fit].
With `CCN1C(=O)C(Cc2nc3ccccc3c(=O)n2-c2ccc(OC)cc2)c2cc(C)ccc21` (centres undefined) the Potency was “inactive”.
With `CCN(CCNC(=O)c1ccc2nc(-c3ccccc3NC(C)=O)c(=O)[nH]c2c1)c1ccccc1` the Potency was inconclusive: 20 µM [inhibitor, partial curve].
`COC(=O)c1ccc(C(=O)OC)c(NC(=O)CN(C)Cc2ccccc2)c1` was tested, and the Potency was “inactive”.
In the case of `O=C(COc1ccccc1)NCCc1csc(-c2cccc(F)c2)n1`, the Potency was “inactive”.
With `COc1cc(/C=C2\SC(=O)N(Cc3ccc(Cl)cc3)C2=O)cc([N+](=O)[O-])c1O` the Potency was active: 12.6 µM.
`CCOC(=O)c1c(C)[nH]c(C)c1C(=O)COc1ncnc2cc([N+](=O)[O-])ccc12` was tested, and the Potency was inconclusive: 12.6 µM [inhibitor, partial curve].
For `N#Cc1cc(NC(=O)c2ccc(F)cc2)c(=O)n2c1[nH]c1ccccc12`, the Potency was inconclusive: 8.91 µM [inhibitor, partial curve].
`CCCCNc1c([N+](=O)[O-])cc(C)cc1[N+](=O)[O-]` was tested, and the Potency was inconclusive: 5.62 µM [inhibitor, partial curve, poor fit].
In the case of `CN1/C(=C\P(=O)(N(C)C)N(C)C)C(C)(C)c2ccccc21`, the Potency was active: 31.6 µM.
`Cc1ccc(C)c(Nc2nc(-c3ccccc3)c3cc(Br)ccc3n2)c1` was tested, and the Potency was inconclusive: 12.6 µM [inhibitor, partial curve].
`Cn1nnnc1SCCNCc1ccc(OCc2ccccc2Cl)cc1` was tested, and the Potency was inconclusive: 3.55 µM [inhibitor, full curve].
In the case of `Cn1ccnc1Sc1cc(NCCCO)c([N+](=O)[O-])c2nonc12`, the Potency was active: 4.47 µM.
In the case of `COc1ccc(/C=N/NC(=O)c2ccc(F)cc2)cc1CN1CCc2cc(OC)c(OC)cc2C1C` (centres undefined), the Potency was inconclusive: 28.2 µM [inhibitor, partial curve].
`Cc1cccc(C(=O)Nc2cccc(C(=O)OCc3cc(=O)n4nc(C(C)C)sc4n3)c2)c1` was tested, and the Potency was inconclusive: 0.224 µM [inhibitor, full curve, poor fit].
In the case of `COc1ccc(NC(=S)NC(NC(C)=O)C(Cl)(Cl)Cl)c([N+](=O)[O-])c1` (centres undefined), the Potency was inconclusive: 35.5 µM [inhibitor, single point].
With `CCOc1ccc(NCc2cc3cc(OC)ccc3[nH]c2=O)cc1` the Potency was active: 6.31 µM.
`Cc1ccc(NC(=O)Cn2nnc3ccccc3c2=O)cc1C` was tested, and the Potency was “inactive”.
`O=C(NC1CCCCCCC1)c1ccccc1-c1ccccc1` was tested, and the Potency was “inactive”.
In the case of `CC(C(=O)Nc1ccccc1-c1ccccc1)N1CCN(S(=O)(=O)c2ccccc2)CC1` (centres undefined), the Potency was “inactive”.
`CC(C)(C)OC(=O)N1CCC(c2c(C(=O)NC3CCCCC3)cnn2-c2cccc(F)c2)CC1` was tested, and the Potency was “inactive”.
With `Cc1cc(Sc2ccc(Cl)cc2)nc2ccccc12` the Potency was inconclusive: 17.8 µM [inhibitor, partial curve].
In the case of `Brc1ccc(C=Nc2ccc(Nc3ccccc3)cc2)s1`, the Potency was active: 10 µM.
In the case of `O=C(Nc1cccc([N+](=O)[O-])c1)c1ccc2nc(N3C(=O)CCC3=O)sc2c1`, the Potency was inconclusive: 14.1 µM [inhibitor, partial curve].
`O=C(N/N=C/C1CC2CCC1C2)c1c[nH]c2ccccc12` (centres undefined) was tested, and the Potency was inconclusive: 25.1 µM [inhibitor, partial curve].
For `COc1cc(C(c2c(C)[nH][nH]c2=O)c2c(C)[nH][nH]c2=O)ccc1OS(=O)(=O)c1ccc(C)cc1`, the Potency was inconclusive: 31.6 µM [inhibitor, partial curve].
For `CCNc1nc(NCC)nc(SCCOc2ccc(C)cc2)n1`, the Potency was inconclusive: 28.2 µM [inhibitor, single point].
For `COc1ccccc1NC(=O)c1ccc(NC(=O)COC(=O)CCC2CCCC2)cc1`, the Potency was “inactive”.
For `Cc1ccc(-c2ccc(/C=N/n3cnnc3)o2)cc1`, the Potency was inconclusive: 35.5 µM [inhibitor, single point].
In the case of `COc1ccc(CCN2C(=O)c3[nH]nc(-c4ccccc4O)c3C2c2cccc(OC)c2)cc1` (centres undefined), the Potency was inconclusive: 1 µM [inhibitor, single point].
For `O=C(CC1Sc2ncnn2C1=O)Nc1ccc(Cl)cc1` (centres undefined), the Potency was inconclusive: 35.5 µM [inhibitor, single point].
With `Cc1cc(=O)n(CC(=O)Nc2ccc([N+](=O)[O-])cc2)c(-n2nc(C)cc2C)n1` the Potency was inconclusive: 22.4 µM [inhibitor, partial curve].
For `CC(=O)Nc1cccc(NC(=O)c2ccc(C)c([N+](=O)[O-])c2)c1`, the Potency was “inactive”.
With `Cc1cc(C(F)(F)F)nn1-c1nc(-c2ccccc2)cc(C(F)(F)F)n1` the Potency was “inactive”.
For `Cc1ccccc1Nc1c(-c2cccc(N(C)C)c2)nc2ccc(Br)cn12`, the Potency was “inactive”.
With `O=C(c1ccccc1Cl)N(Cc1ccco1)Cc1ccco1` the Potency was “inactive”.
`CCOC(=O)C1=C(c2ccccc2)OC(N)=C(C#N)C1c1ccc(Br)s1` (centres undefined) was tested, and the Potency was inconclusive: 28.2 µM [inhibitor, single point].
`Cc1ccc(Nc2ccc([N+](=O)[O-])nc2[N+](=O)[O-])cc1` was tested, and the Potency was inconclusive: 15.8 µM [inhibitor, partial curve].
For `COc1ccc(/C=N/NC(=O)c2sccc2OCc2ccc(F)cc2)cc1OC`, the Potency was inconclusive: 35.5 µM [inhibitor, partial curve].
In the case of `Cc1ccc(NC(=O)CSc2c3c(nc4ccccc24)CCCC3)cc1F`, the Potency was inconclusive: 2.51 µM [inhibitor, full curve].
For `CC(C)C1C(=O)Nc2ccc(S(=O)(=O)NCc3ccc(Cl)cc3)cc21` (centres undefined), the Potency was “inactive”.
With `O=C(NCc1n[nH]c(=S)n1-c1cccc(Cl)c1)c1ccc(S(=O)(=O)N2CCCC2)cc1` the Potency was “inactive”.
`CCOC(=O)C1=C2SCC(=O)N2C(N)=C(C#N)C1` was tested, and the Potency was inconclusive: 31.6 µM [inhibitor, single point].
`CC(C)Cn1c2c(c(O)c(C(=O)Nc3nccs3)c1=O)CCCC2` was tested, and the Potency was inconclusive: 28.2 µM [inhibitor, partial curve].
With `COc1cc(C)ccc1OCCCn1c(-c2ccc(Cl)cc2)nc2ccccc2c1=O` the Potency was “inactive”.
`COc1ccc(C2(C(=O)c3ccccc3)C(=O)c3ccccc3C2=O)cc1` was tested, and the Potency was active: 14.1 µM.
Also: nearly all actives have a fitted effect of over 55% in size.
Potency is read from the fitted curve at half-maximal effect; tags tell the direction and shape of the fitted curve.
